# Assay results taken from US20240252670A1, “ANTIBODY DRUG CONJUGATE, PREPARATION METHOD THEREFOR AND APPLICATION THEREOF” (TSINGHUA UNIVERSITY, priority 2021, published 2024).
# Key:
# [1] = target: T1, PD-L1 on MC38 cell surfaces (Mus musculus, UniProt Q9EP73); assay: FACS detection of antigen-binding capacity on PD-L1 positive MC38 cells (FITC secondary antibody)
# T1 construct: endogenous in cells; host or cells: MC38 cells
# Procedure: MC38 cells were treated with anti-PD-L1 antibody, anti-PD-L1 THIOMAB and ADC HE-S2, and then stained with FITC-labeled goat anti-human secondary antibody; the FITC signal intensity on MC38 surfaces was analyzed by FACS technique detection. A. The histograms of different colors represent, from top to bottom, the fluorescence signals measured for the negative control (NC) group, the secondary antibody group, the anti-PD-L1 antibody group, the anti-PD-L1 THIOMAB group, and the ADC HE-S2 group, respectively. B. Mean fluorescence intensity (MFI) measured after treatment with different antibody-based drugs on MC38. NC group: the negative control only added with the isotype antibody, with no secondary antibody added for staining; secondary antibody group: the control group added with the isotype antibody and stained with fluorescent secondary antibody. […]
# With PD-L1 positive MC38 as a platform, the inventors verified whether ADC HE-S2 and the gene-modified anti-PD-L1 THIOMAB retained the original antibody-antigen binding capacity by using a fluorescence activated cell sorting (FACS) technique. […] The stained MC38 cells were analyzed on a BD FACSAria™ III flow cytometer, and the strength of FITC fluorescence signals on MC38 cells treated with different antibody-based drugs was detected and compared, so as to characterize the affinity of ADC, THIOMAB and antibodies to PD-L1.
# MC38 tumor = assay: Anti-tumor activity and survival in MC38 mouse tumor model; assay type: in vivo
# Description: (§1) A. Treatment with ADC HE-S2, single administration of anti-PD-L1 antibody, D18, or anti-PD-L1 THIOMAB, and anti-PD-L1 antibody/D18 combined administration for inhibitory activity against mouse MC38 tumor growth. B. Whole animal survival study. The ordinate of the curve represents the percentage of tumor-bearing mice that remained alive after different days, and the abscissa thereof represents the number of experimental days. C. Treatment with ADC HE-S2, single administration of anti-PD-L1 antibody, D18, or anti-PD-L1 THIOMAB, and anti-PD-L1 antibody/D18 combined administration for inhibitory activity against mouse MC38 tumor growth. Student's t test was used to compare significant differences between the groups, and p<0.001 is represented by ***.
# To verify the anti-cancer activity of ADC HE-S2, the inventors first made a mouse model with MC38. After the tumor was loaded, a visible tumor could be observed on the mouse surface for about one week. When the mean tumor tissue volume of the mice reached 100 mm^3, the mice were randomly grouped as follows according to the final type of drug administered: IgG isotype control antibody group (abbreviated as IgG), anti-PD-L1 antibody group (anti-PD-L1), anti-PD-L1 THIOMAB group (Thiomab), D18 group (D18), D18/anti-PD-L1 antibody combination treatment group (anti-PD-L1 & D18), and ADC HE-S2 group (ADC HE-S2), with 7-8 mice per group. The IgG isotype control antibody group, the anti-PD-L1 antibody (i.e., avelumab as described in Example 2) group, and the anti-PD-L1 THIOMAB (i.e., mutant antibody prepared in Example 2) group were administered twice a week via intraperitoneal injection of 150 μg per mouse for each time. The D18 group was administered twice a week via intraperitoneal injection of 25 μg per mouse for each time. […]
# B16 melanoma = assay: Anti-tumor activity in B16 melanoma mouse model; assay type: in vivo; conditions: B16 mice
# Description: as §1
# B16 melanoma is a tumor with low PD-L1 level and certain drug resistance to PD-1/PD-L1 blocking treatment. As a result, as expected by the inventors, the inhibitory effect of each drug on B16 melanoma was reduced relative to the MC38 tumor.
# Dosage: Antibody drugs, administered 150 μg per mouse for each time, and D18, administered 25 μg per mouse for each time. - means no administration on the day. * Only mice with MC38 tumor model were allowed to be administered until the 24th day, and mice with B16 tumor model were no longer administered after the 21st day.
# [2] = Effect of drug treatment on body weight of healthy mice; assay type: in vivo, mouse
# Procedure: Mice were treated with ADC HE-S2, anti-PD-L1 antibody+D18 in combination, anti-PD-L1 antibody alone, D18 alone, and isotype IgG, and their body weight variations were recorded. The time of administration for each drug is indicated by the arrow. Student's t test was used to compare significance differences between groups, wherein p<0.05 is represented by *. p<0.01 is represented by **, and no significance difference is represented by ns.
# Then, the inventors examined the effect of each group of drug treatment on the body weight of mice in a mouse model to determine the toxic and side effects of the drugs used, and the results are shown in FIG. 17. Healthy mice were divided into an ADC group, an anti-PD-L1 antibody+D18 group, an anti-PD-L1 antibody group, a D18 group and an IgG group according to the administration, with 5 mice per group. The mode and dose of administration for each group of mice were the same as those in the mouse tumor model experiment: in the ADC group, ADC HE-S2 was dosed once a week, and the anti-PD-L1 antibody was […], 150 μg for each time; D18 was dosed once a week, 25 μg for each time; the anti-PD-L1 antibody and the IgG isotype antibody were dosed twice a week, 150 μg for each time.
# T1 sequence (Q9EP73 19-290): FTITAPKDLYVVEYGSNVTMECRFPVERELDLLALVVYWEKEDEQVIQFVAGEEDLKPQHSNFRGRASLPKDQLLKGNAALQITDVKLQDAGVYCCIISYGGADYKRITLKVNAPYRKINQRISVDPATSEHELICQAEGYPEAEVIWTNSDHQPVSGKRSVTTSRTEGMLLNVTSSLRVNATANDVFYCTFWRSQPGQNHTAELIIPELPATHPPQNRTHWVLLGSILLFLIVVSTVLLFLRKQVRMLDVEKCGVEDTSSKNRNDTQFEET
molecule,measurement,setting,value
ADC HE-S2 (conjugate) heavy: EVQLLESGGGLVQPGGSLRLSCAASGFTFSSYIMMWVRQAPGKGLEWVSSIYPSGGITFYADTVKGRFTISRDNSKNTLYLQMNSLRAEDTAVYYCARIKLGTVTTVNYWGQGTLVTVSS[sequence of human IgG1 constant region omitted] light: QSALTQPASVSGSPGQSITISCTGTSSDVGGYNYVSWYQQHPGKAPKLMIYDVSNRPSGVSNRFSGSKSGNTASLTISGLQAEDEADYYCSSYTSSSTRVFGTGTKVTVLGQPKANPTVTLFPPSSEELQANKATLVCLISDFYPGAVTVAWKADGSPVKAGVETTKPSKQSNNKYAASSYLSLTPEQWKSHRSYSCQVTHEGSTCEKTVAPTECS,MFI compared with the natural anti-PD-L1 antibody (Student's t test),[1],no significant difference
same,inhibitory activity against MC38 tumor growth,"MC38 tumor; MC38 mice, i.p., antibody drugs 150 μg per mouse, D18 25 μg per mouse, schedule Table 1",significantly superior to that of the combination treatment group
same,tumors in the last alive mice,MC38 tumor; day 70,barely detectable
same,survival rate of mice,MC38 tumor; until day 70,6/8
same,inhibitory effect on B16 melanoma,"B16 melanoma; i.p., antibody drugs 150 μg, D18 25 μg per mouse, dosing to day 21",some tumor inhibitory effect
same,growth rate of B16 tumors compared to the combination treatment,B16 melanoma; p<0.05,significantly slow down
same,final change in body weight compared with the control group,[2]; after administration,not significantly different from that in the control group
same,body weight change of the mice after administration,"[2]; antibody drugs 150 μg, D18 25 μg per dose",certain drop in body weight
same,body weight loss relative to the administration of D18 alone,[2]; p<0.05,significantly less than that of the D18 group
